From PubChem BioAssay AID1345082 (National Center for Advancing Translational Sciences (NCATS), 2018)
Several values for one entry are separate records, joined by “and”; a condition that tells them apart may be missing. Equal values may be shown once. Hit rate of the full screen: of about 94,000 compounds, about 4,000 (4.3%) were called active. The inconclusive results got no clear call from the source; some entries with a clear call stand among them for comparison. Calls follow the shape of the dose curve; as a rule, active = well fitted inhibition curve with a large enough effect; inconclusive = small, poorly fitted or top-dose-only effect; inactive = no such curve, though single readings can be large or run the other way. Potencies beside an inconclusive call are fits to weak or partial responses and may not hold up.

Assay: Cytotoxic Profiling in NIH 3T3 Cell Line of Diverse Libraries Using Quantitative High-Throughput Screening; also: nearly all actives have a fitted effect of over 55% in size
Conditions: NIH 3T3 viability, CellTiter-Glo ATP luminescence, 48-72 h; activity change, negative = cytotoxicity: at 96.7 µM (top of the series) unless noted; series mostly up to 96.7 µM
Method in brief: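 Cells were seeded at 400 per well, treated with pin-transferred compound, and kept 48 or 72 hr at 37 °C before CellTiter-Glo addition and luminescence imaging of cellular ATP.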
% is scaled to controls: 0 for no effect and ±100 for the full control effect; potency is read from the fitted curve at half-maximal effect; tags tell the direction and shape of the fitted curve.

| Structure (SMILES) | Potency | outcome | activity change, negative = cytotoxicity |
| --- | --- | --- | --- |
| Cc1cc(F)ccc1-c1[nH]nc2ncc(-c3ccsc3)nc12 | active: 20 µM |  |  |
| COc1ccc(-c2ccccc2)cc1N1C(=O)[C@@H]2C[C@H]1CN2C(=O)CNC(N)=O |  | inactive |  |
| CN(C)Cc1cc(C[C@@H]2C[C@H](NC(=O)CC(C)(C)C)C2(C)C)no1 | inconclusive: 44.7 µM [inhibitor, partial curve, poor fit] |  |  |
| O=C(NCc1ccc(F)cc1)c1nc(-c2ccccc2)c2cnccn12 | inconclusive: 35.5 µM [inhibitor, partial curve] |  |  |
| CN1CCC(NCc2nc3c(n2Cc2ccccc2)C(=O)N(CCOc2ccccc2)CCN3)CC1 | inconclusive: 70.8 µM [inhibitor, single point] |  |  |
| COc1ccc(CCNC(=O)c2cc(-c3ccc(C(F)(F)F)cc3)nc3c2cnn3C)cc1 |  |  | inactive: -24.4% |
| CCN(CC)C(=O)[C@@H]1CCC[C@@H](NS(=O)(=O)c2ccccc2)CN(C)C(=O)C1 |  |  | inactive: 3.79% [at 174 µM] |
| COc1ccc(C2=NOC3(CCN(Cc4cccc5ccccc45)C3)C2)cc1 (stereo unspecified) |  |  | inactive: -22% |
| COCCN[C@H]1C[C@@H]2c3[nH]c4ccccc4c3C[C@@H](C(=O)OC)N2[C@H](c2ccccc2)C1 | active: 35.5 µM |  |  |
| O=C(NCc1ccccn1)C1CCN(C(=O)N2CC3CC(C2)[C@H]2CCCC(=O)N2C3)CC1 (stereo partly specified) | inconclusive: 79.4 µM [inhibitor, single point] |  |  |
| COCCn1c(COc2ccc(S(C)(=O)=O)cc2)nnc1C1CC(N)C1 (stereo unspecified) | inactive |  |  |
| COCCN1C[C@@H]2[C@H](c3ccccc31)[C@@H](CO)[C@@H](c1ccccc1)N2C(=O)COC(C)=O | inconclusive: 70.8 µM [inhibitor, partial curve, poor fit] |  |  |
| O=C(NCc1cnccn1)c1ccc(-c2ncc3cnc(C4=CCOCC4)cn23)cc1 | inconclusive: 100 µM [inhibitor, partial curve] |  |  |
| CCOc1cc(C(=O)N2CCC(Cc3nc(-c4cnccn4)no3)CC2)cc(OCC)c1OCC | inconclusive: 35.5 µM [inhibitor, partial curve] |  |  |
| O=C(c1cccc(Cl)c1)N1CCc2nc(C3CC3)nc(-c3ccc(O)cc3)c2CC1 | inconclusive: 50.1 µM [inhibitor, partial curve, poor fit] |  |  |
| Cc1nn(-c2ccccc2)c2c1C(C1CC1)N(C1CN(C(=O)NC(C)(C)c3ccccc3)C1)C2=O (stereo unspecified) | active: 14.1 µM |  |  |
| Cc1ccc(NC(=O)N2CCCCC2c2nc(CCOCC3CCCC3)no2)cc1C (stereo unspecified) | inconclusive: 50.1 µM [inhibitor, partial curve, poor fit] |  |  |
| CCc1cc(=O)n(CC(=O)Nc2cccc(C(C)=O)c2)c(-c2ccccc2)n1 | active: 35.5 µM |  |  |
| Clc1ccc(CN2CCC3(CC2)CC(Cc2ccccc2)=NO3)cc1 | inconclusive: 50.1 µM [inhibitor, partial curve, poor fit] |  |  |
| CN1CC(=O)N(C2CCCNCC2)Cc2c(NCCCN3CCCCC3)ncnc21 (stereo unspecified) |  | inactive |  |
| O=C(Nc1ccc(-c2nnc3n2CCCC3)cc1)c1nccc2ccccc12 | inconclusive: 50.1 µM [inhibitor, partial curve, poor fit] |  |  |

| Structure (SMILES) | Potency | outcome | activity change, negative = cytotoxicity |
| --- | --- | --- | --- |
| Cc1noc(C)c1-c1cc2c(c(-c3cccc(CO)c3)c1)C(=O)N(C)C2 | inconclusive: 44.7 µM [inhibitor, partial curve, poor fit] |  |  |
| Cc1cccc(OCC(=O)N2CCC(c3n[nH]c(=O)n3-c3ccccc3)CC2)c1 | active: 7.08 µM |  |  |
| Cc1cc(=O)n(CC(=O)Nc2ccc(C(C)C)cc2)c(N2CCOCC2)n1 | inconclusive: 44.7 µM [inhibitor, partial curve, poor fit] |  |  |
| O=C(C1CCOC1)N1CC(Oc2ccc(-c3nc(-c4ccccc4)no3)cc2)C1 (stereo unspecified) | inconclusive: 15.8 µM [inhibitor, full curve, poor fit] |  |  |
| CC1(C(=O)N2CCCC2)CCCc2cnc(Nc3cccnc3)nc21 (stereo unspecified) | inconclusive: 63.1 µM [inhibitor, partial curve, poor fit] |  |  |
| c1ccc(CC2CCOC3(CCN(Cc4ccncc4)CC3)C2)cc1 (stereo unspecified) | inconclusive: 44.7 µM [inhibitor, partial curve, poor fit] |  |  |
| CC(C)NC(=O)C1CCCN(c2nccc(Nc3ccccc3F)n2)C1 (stereo unspecified) | inconclusive: 44.7 µM [inhibitor, partial curve, poor fit] |  |  |
| Cn1cc(CN2CCCN(C(=O)c3ccco3)CC2)c(-c2ccc(C3CCCCC3)cc2)n1 | inconclusive: 50.1 µM [inhibitor, partial curve, poor fit] |  |  |
| COc1ccc(-c2[nH]ncc2CN2CCCCCNC(=O)CC2c2ccccc2)cc1 (stereo unspecified) | inconclusive: 50.1 µM [inhibitor, partial curve, poor fit] |  |  |
| O=C(c1ccc(Cn2ccnc2)o1)N1CCCCCC1c1nnc(-c2ccccc2)o1 (stereo unspecified) | inconclusive: 44.7 µM [inhibitor, partial curve, poor fit] |  |  |
| Cc1nc(CN2CC3(CCN(C)C3)c3cc(C(=O)Nc4ccc(F)cc4)ccc32)cs1 (stereo unspecified) | inconclusive: 56.2 µM [inhibitor, partial curve, poor fit] |  |  |
| CN(C)c1cc(=O)c2ccnc(Nc3cccnc3)c2o1 | active: 79.4 µM |  |  |
| Cc1cc(CN2CC(Oc3ccc(F)cc3F)C2)no1 |  |  | inactive: -14.5% [at 138 µM] |
| COc1ccc(C(=O)N[C@@H]2CCC[C@@H]2C(=O)NCc2ccc(C)cc2)cn1 |  |  | inactive: -3.05% |
| COc1ccc(CN2Cc3[nH]nc(-c4cccnc4OC)c3CC2=O)cc1 | inconclusive: 15.8 µM [inhibitor, full curve, poor fit] |  |  |
| CN(C)CCNC(=O)c1nc2nc(-c3ccccc3)c(-c3ccc(O)c(F)c3)cc2n1C | active: 44.7 µM |  |  |
| Cc1cccc(C(=O)N2C(C(=O)NC(C)c3ccccc3)COC23CCC(C)CC3)c1 (stereo unspecified) | inconclusive: 50.1 µM [inhibitor, partial curve, poor fit] |  |  |
| CN1CC(=O)N(c2ccc(Cl)cc2)Cc2c1ncnc2N1CCc2ccccc2C1 | inconclusive: 35.5 µM [inhibitor, partial curve] |  |  |
| CC(C)(C)C(=O)Nc1cc(-c2ccncc2)nn1-c1ccccc1 |  |  | inactive: -17.5% [at 138 µM] |
| COCc1nc(-c2ccc(OC3CN(C(=O)Cc4ccccc4)C3)cc2)no1 | inconclusive: 44.7 µM [inhibitor, partial curve, poor fit] |  |  |
| Cc1ccc(-c2cc3c(=O)n(CCNC(=O)c4cccc(Cl)c4)ccn3n2)cc1C | inconclusive: 44.7 µM [inhibitor, partial curve, poor fit] |  |  |

| Structure (SMILES) | Potency | outcome | activity change, negative = cytotoxicity |
| --- | --- | --- | --- |
| CCCc1nc(C(=O)N(C)CCSc2ccc(C)cc2)cs1 | inconclusive: 50.1 µM [inhibitor, partial curve, poor fit] |  |  |
| COc1ccccc1C(=O)Nc1cc(-c2ccncc2)nn1C | inconclusive: 56.2 µM [inhibitor, partial curve, poor fit] |  |  |
| COc1ccc(F)c(CN2CCCC(O)(CN3CCC(C(C)C)CC3)C2=O)c1 (stereo unspecified) | inconclusive: 50.1 µM [inhibitor, partial curve, poor fit] |  |  |
| COc1ccc(-c2cc(-c3cccs3)nc3c(C)noc23)cc1OC | inconclusive: 39.8 µM [inhibitor, partial curve, poor fit] |  |  |
| Cc1ccc(CN(C)Cc2cccn2C)cc1 | inconclusive: 126 µM [inhibitor, single point] |  |  |
| CCN(CC)C(=O)CCc1c(C)nn(-c2ccc(F)cc2)c1Oc1ccccc1C | active: 39.8 µM |  |  |
| COc1ccc(F)cc1-c1ccc(CN2CCC(NC(=O)CN(C)C)C2)cc1 (stereo unspecified) | inconclusive: 15.8 µM [inhibitor, full curve, poor fit] |  |  |
| Cc1noc(C)c1-c1cnc(Nc2ccccc2)c2c1CCO2 | inconclusive: 50.1 µM [inhibitor, partial curve, poor fit] |  |  |
| O=C(Nc1ccccc1Cl)N1CCCC2(C1)Nc1cccnc1NC2=NC1CCCC1 (stereo unspecified) | active: 44.7 µM |  |  |
| c1cnc2nc(-c3c[nH]c4ccccc34)[nH]c2c1 | inconclusive: 89.1 µM [inhibitor, partial curve, poor fit] and inconclusive: 100 µM [inhibitor, partial curve, poor fit] |  |  |
| COc1ccc(-c2ccc(C(=O)NCCCc3ccccc3)c(Cl)c2)nn1 | inconclusive: 70.8 µM [inhibitor, single point] |  |  |
| Cc1nnc(-c2cc(-c3ccc(N4CCOCC4)cc3)ccn2)n1C1CCCCC1 | inconclusive: 56.2 µM [inhibitor, partial curve, poor fit] |  |  |
| CSc1cccc(NC(=O)C2CCN(c3cnc4nccnc4c3)CC2)c1 | active: 6.31 µM |  |  |
| COc1cccc(-c2ccc(C(=O)N3CCC(NC(=O)Cc4ccc(F)cc4)CC3)cc2)c1 | active: 39.8 µM and inconclusive: 44.7 µM [inhibitor, partial curve, poor fit] |  |  |
| O=C1CC2(CCN(S(=O)(=O)c3cccs3)CC2)Oc2cc(Cl)ccc21 | inconclusive: 28.2 µM [inhibitor, full curve, poor fit] |  |  |
| COCCn1ccc2c(C3=CCOCC3)nc(-c3cccc4cn[nH]c34)cc21 | inconclusive: 7.08 µM [inhibitor, full curve, poor fit] |  |  |
| COc1ccc(CNC(=O)C2CCN(c3cc(C(F)(F)F)nc(C)n3)CC2)cc1 | inconclusive: 50.1 µM [inhibitor, partial curve, poor fit] |  |  |
| CNC(=O)c1cc(C2CC2)nc2onc(C3CCCN(C(=O)Cc4ccc(F)cc4)C3)c12 (stereo unspecified) |  |  | inactive: -21.5% |
| O=C(c1nnc(CNCc2cnccn2)n1-c1ccccc1)N1CCC[C@@H]1C(c1ccccc1)c1ccccc1 | inconclusive: 10 µM [inhibitor, partial curve, poor fit] |  |  |
